The labels stand for the following.
B1: CPEB3 Ribozyme (parent)
chain: UAACAGGGGGCCACAGCAGAAGCGUUCACGUCGCAGCCCCUGUCAGAUUCUGGUGAAUCUGCGAAUUCUGCUGUAUAUCUC

The source gives no read counts; variants with many changes may rest on few reads.

This data set covers variants of B1. The data set can be described thus: self-cleavage, relative activity (ratio to wild type); higher = more cleavage; in vitro, sequencing. In outline:
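CPEB3 self-cleaving ribozyme mutant libraries were made by rounds of error-prone PCR, barcoded, and transcribed in vitro with T7 RNA polymerase for 5 hours at 37°C. Cleavage occurred during transcription and a 15 min DNase I step before EDTA stop. RNAs were reverse transcribed with template switching and Illumina-sequenced, with DNA sequencing mapping barcodes to variants. Relative activity is the variant's cleaved/total read fraction divided by wild type's (minimum 5 reads), averaged across three batches.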
With UAACAGGGGGCCGCAGCAGAAGCGUUCACGUCGCAGCCCCUGUCAGACUCUGGUGAAUCAGCGAAUUCUGCUGCAUAUCUC [A13G U48C U60A U74C], the self-cleavage was 0.19.

Consider UAACAGGGGGCCGCAGCAGAAGCGUUCACGUCGCAGCCCCUGUCAGAUUCUGGUGAAUCCGCGAGUUCUGCUGUAUAUCUC [A13G U60C A65G], for which the self-cleavage was 0.17.

As for UAACAGGGGGCCUCCGCAGAAGCCUUCACGACGCAGCCCCUGUCGGAUUCUGGUGAAUCUGCGAAUUCUGCUGUAUAUCUC [A13U A15C G24C U31A A45G], the self-cleavage was 0.2.

For UAACAGGGGGCCGCAGCAGAAGCGUUCACGUCGCAGCCCCUGUCAGAUUCUGGUGAACCUGCGAAUUCAGCUGUAUAUCUC [A13G U58C U69A], the self-cleavage was found to be 0.13.

Take UAACAGGGGGCCGCAGCAGAAGCGUUCACGUCGCAGCCCCUGUCAGAUUCUGGUGAAUCUGCGAAUCCCGCUGUAUAUCUC [A13G U67C U69C]: the self-cleavage worked out at 0.12.

In the case of UAACAGGGGGCCUCGGCAGAAGCGUUCACGUCGCAGCCCCUGUCAGAUUCUGGUGGAUCCGCGAAUUCCGCUGUAUAUCUC [A13U A15G A56G U60C U69C], the self-cleavage amounted to 0.16.

As for UAACAGGGGGCCGCAGCAGAAGCGUUCACGUCGCAGCCCCUGUCAGAUUCAGGUGUAUCUGCGAAUCCUGCUGUAUAUCUC [A13G U51A A56U U67C], the self-cleavage came to 0.28.

For the variant UAACAGGGGGCCGCAGCAGAAGCGUUCACGUCGCAGCCCCUGUCAGAUUCCGGUGAGUCUGCGAAUCCCGCUGUAUAUCCC [A13G U51C A57G U67C U69C U80C], the self-cleavage turned out to be 0.31.

As for UAACAGGGGGCCGCAGCAGAAGCGUUCACGUCGCAGCCCCUGUCAGAUUCUGGUGAAUCAGCGAAUUCUGGUGUAUAUCUC [A13G U60A C71G], the self-cleavage was 0.09.

In the case of UAACAGGGGGCCGCAGCAGAAGCGUUCACGUCGCAGCCCCUGUCAGAUUCAGGUGAAUCUGCGGAUUCUGCUGUAUAUCUC [A13G U51A A64G], the self-cleavage stood at 0.94.

As for UAACAGGGGGCCUCGGCAGAAGCGCUCACGUCGCAGCCCCUGUCAGAUUCUGGUGGAUCCGCGAAUACUGCAGUAUAUCUC [A13U A15G U25C A56G U60C U67A U72A], the self-cleavage amounted to 0.05.

Take UAACAGGGGGCCUCGGCAGAAGCGUUCACGUCGCGGCCCCUGUCGGGUUCUGGUGAAUCUGCGAAUUCUGCUGUAUAUCUC [A13U A15G A35G A45G A47G]: the self-cleavage was 0.61.

As for UAACAGGGGGCCUCGGCAGAAGCGUUCACGUCGCAGCCCCUGCCAGAUUCUGGUGGAUCUGCGAAUUCUGCUGUAUAUCUC [A13U A15G U43C A56G], the self-cleavage worked out at 0.25.

Consider UAACAGGGGGCCGCAGCAGAAGCGUUCACGUCGCAGCCCCUGUCAGAUUCUGGUGAAUCUGCGAAUUCCGCUGUACAUCUC [A13G U69C U76C], for which the self-cleavage worked out at 0.35.

As for UAACAGGGGGCCGCAGCAGAAGCGUUCACGUCGCAGCCCCUGUCAGAUCCUGGUGGAUCUGCGAAUUCCGCUGUAUAUCUC [A13G U49C A56G U69C], the self-cleavage came out at 0.6.

On to UAACAGGGGGCCGCAGCAGAAGCGUUCACGUCGCAGCCCCUGUCAGAUACUGGUGGAUCUGCGAAUUCCGCUGUAUAUCUC [A13G U49A A56G U69C], for which the self-cleavage worked out at 0.08.

Regarding UAACAGGGGGCCUCCGCAGAAGCGUUCACGUCGCAGCCCCUGUCAGAUUCUGGUGAAACCGCGAAUUCUGCUGUAUUUCUC [A13U A15C U58A U60C A77U], the self-cleavage came out at 0.11.

With UAACAGGGGGCCGCAGCAGAAGCGUUCACGUCGCAGCCCCUGUCAGAUUCUGGCGAAUCUGCGAAUUCUGCUGUAUAUAUC [A13G U54C C79A], the self-cleavage was determined as 1.24.

With UAACAGGGGGCCGCAGCAGAAGCGUUCACGUCGCAGCCCCUGUCAGAUUCCGGUGAAUCUGCGAAUUCUGCUGCAUAUCUC [A13G U51C U74C], the self-cleavage worked out at 0.81.

Take UAACAGGGGGCCGCAGCAGAAGCGUUCACGUCGCAGCCCCUGUCAGAUACUGGUGAAUCUGCGAAUACUGCUGUAUAUCCC [A13G U49A U67A U80C]: the self-cleavage came to 0.36.

As for UAACAGGGGGCCGCAGCAGAAGCGUUCACGUCGCAGCCCCUGUCAGAUUCUGGUGAACCUGGGAAUUCUGCUGUAUAUCCC [A13G U58C C62G U80C], the self-cleavage came out at 0.14.

With UAACAGGGGGCCGCAGCAGAAGCGUUCACGUCGCAGCCCCUGUCAGAUUCUGGUGAAACUGCGAAUUGUGCUGUAUAUCUC [A13G U58A C68G], the self-cleavage came out at 0.19.

Regarding UAACAGGGGGCCGCAGCAGAAGCGUUCACGUCGCAGCCCCUGUCAGAUUCUGGCGAAUCUGCGAAUCCUGCUGUAUAUCUC [A13G U54C U67C], the self-cleavage came out at 0.14.

As for UAACAGGGGGCCGCAGCAGAAGCGUUCACGUCGCAGCCCCUGUCAGAUUCUGGAGAAUCUGCGAAUUCUGCCGUAUAUCUC [A13G U54A U72C], the self-cleavage was 0.96.

With UAACAGGGGGCCGCAGCAGAAGCGUUCACGUCGCAGCCCCUGUCAGAUUCUGGUGAAUCUGCGAACUCUGCUGCAUAUCUC [A13G U66C U74C], the self-cleavage was determined as 0.17.

With UAACAGGGGGCCGCAGCAGAAGCGUUCACGUCGCAGCCCCUGUCAGACUCCGGUGAAUCUGCCAAUUCUGCUGUAUAUCUC [A13G U48C U51C G63C], the self-cleavage worked out at 0.35.

UAACAGGGGGCCGCAGCAGAAGCGUUCACGUCGCAGCCCCUGUCAGACUCUGGUGAAUCUGCGAAUUCCGCCGUAUAUCUC [A13G U48C U69C U72C]: the self-cleavage was 0.13.

On to UAACAGGGGGCCGCAGCAGAAGCGUUCACGUCGCAGCCCCUGUCAGAUACUGGUGAAUCUGCGAACUCUGCUGUAUAUCUC [A13G U49A U66C], for which the self-cleavage came out at 0.09.

As to UAACAGGGGGCCGCAGCAGAAGCGUUCACGUCGCAGCCCCUGUCAGACUCUGGUGAGUCUGCGAAGUCUGCCGUAUAUCUC [A13G U48C A57G U66G U72C], the self-cleavage was 0.14.

Turning to UAACAGGGGGCCGCAGCAGAAGCGUUCACGUCGCAGCCCCUGUCAGAUUCUGGUGAAUCCGCGAAUUCUGCUGUAUAUCCC [A13G U60C U80C], the self-cleavage was determined as 0.46.

In the case of UAACAGGGGGCCGCAGCAGAAGCGUUCACGUCGCAGCCCCUGUCAGAUUCUGGCGAAUCUGCGAACUCUGCUGUAUAUCUC [A13G U54C U66C], the self-cleavage was 0.44.

For UAACAGGGGGCCGCAGCAGAAGCGUUCACGUCGCAGCCCCUGUCAGAUUCGGGUGAAUCUGCGAAUACCGCUGUAUAUCUC [A13G U51G U67A U69C], the self-cleavage amounted to 0.

Take UAACAGGGGGCCGCAGCAGAAGCGUUCACGUCGCAGCCCCUGUCAGAUUCUGGUGAAACUGCGAAUUCUGCAGCAUAUCUC [A13G U58A U72A U74C]: the self-cleavage is 0.11.

Regarding UAACAGGGGGCCUCGGCAGAAGCGUUCACGUCGCAGCCCCUGUCAGAUUCCGGUGAAUCUGCGAAUUCUGCUGUAUAUCUC [A13U A15G U51C], the self-cleavage came out at 0.75.

Values taken from the RNAGym collection of RNA variant scans (doi:10.1093/nar/gkz1192).
